From PubChem BioAssay AID1460 (National Center for Advancing Translational Sciences (NCATS), 2008)
Where “and” joins values, the source holds several entries; their conditions need not be identical. Identical values can stand only once. The whole screen tested about 270,000 compounds, of which about 5,800 (2.1%) were called active. The inconclusive results got no clear call from the source; some entries with a clear call stand among them for comparison. The call rests on the fitted dose curve; in most records, active means well fitted inhibition curve with a large enough effect; inconclusive means small, poorly fitted or top-dose-only effect; inactive means flat fitted curve, though single readings scatter. Potencies of inconclusive entries are doubtful fits and often do not repeat.

These compounds were tested against Microtubule-associated protein tau (Homo sapiens) (UniProt P10636) (assay: qHTS for Inhibitors of Tau Fibril Formation, Thioflavin T Binding). Details: recombinant tau K18 P301L, heparin-induced fibrillization, ThT fluorescence; series mostly up to 57.4 µM; activity, negative = inhibition: at the top concentration.
Sequence of UniProt P10636 (P10636 whole entry, looked up): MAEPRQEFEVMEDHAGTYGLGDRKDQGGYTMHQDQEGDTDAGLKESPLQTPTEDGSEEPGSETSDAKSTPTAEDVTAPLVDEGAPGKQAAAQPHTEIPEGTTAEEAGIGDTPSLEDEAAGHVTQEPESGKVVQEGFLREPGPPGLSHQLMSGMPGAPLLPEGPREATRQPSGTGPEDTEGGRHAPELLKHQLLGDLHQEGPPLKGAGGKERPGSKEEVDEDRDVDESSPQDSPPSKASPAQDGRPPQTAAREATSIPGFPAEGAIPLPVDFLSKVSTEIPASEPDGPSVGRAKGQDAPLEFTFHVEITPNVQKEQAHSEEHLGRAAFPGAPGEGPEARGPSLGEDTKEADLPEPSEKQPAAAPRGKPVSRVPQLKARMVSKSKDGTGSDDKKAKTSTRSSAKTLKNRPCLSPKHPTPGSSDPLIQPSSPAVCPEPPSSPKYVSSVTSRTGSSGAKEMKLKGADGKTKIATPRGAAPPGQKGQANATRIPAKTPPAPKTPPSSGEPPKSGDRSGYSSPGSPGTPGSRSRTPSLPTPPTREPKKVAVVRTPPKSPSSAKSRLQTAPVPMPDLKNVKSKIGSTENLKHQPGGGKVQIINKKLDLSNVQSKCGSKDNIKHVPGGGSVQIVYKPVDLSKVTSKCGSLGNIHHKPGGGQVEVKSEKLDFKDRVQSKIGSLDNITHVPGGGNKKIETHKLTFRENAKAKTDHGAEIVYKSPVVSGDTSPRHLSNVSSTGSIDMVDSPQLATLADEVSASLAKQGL
Procedure, shortened: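 ThT emission at 510 nm, taken 1 hr after adding 30 uM dye, quantifies aggregates formed when 20 uM heparin acts on human tau K18 P301L for 6 hr at 37 C.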
Further: nearly all actives have a fitted effect of over 55% in size.
On the % scale 0 is the no-effect control and ±100 the full control effect; potency means the concentration at half of the fitted maximal effect; tags describe the fitted curve by direction and shape.

Row | SMILES | Potency | activity, negative = inhibition
1 | O=C(Cn1c[n+](CC(=O)c2ccc([N+](=O)[O-])cc2)cn1)c1ccc([N+](=O)[O-])cc1 | active: 12.6 µM and active: 20 µM | 
2 | Cc1ccc2sc(C)[n+](CCC(C)S(=O)(=O)[O-])c2c1 (configuration not stated) | inconclusive: 17.8 µM [inhibitor, partial curve] | 
3 | CCSc1nnc(NC(=O)[C@@H](NC(=O)c2ccc(C(C)(C)C)cc2)C(C)C)s1 | inconclusive: 4.47 µM [inhibitor, partial curve] | 
4 | COc1cccc(-c2cc(C(F)(F)F)n3ncc(C(=O)N4CCc5ccccc5C4)c3n2)c1 | inconclusive: 10 µM [inhibitor, partial curve, poor fit] | 
5 | COc1ccc(-c2cc(=O)c3c(O)c(OC)c(OC)c(OC)c3o2)cc1 |  | inactive: -13.4%
6 | CCSc1nnc(NC(=O)c2cc(=O)c3cc(C)ccc3o2)s1 | inconclusive: 14.1 µM [inhibitor, partial curve] | 
7 | CCCc1cc(=O)[nH]c(SCCOc2ccc(Cl)cc2)n1 | inconclusive: 12.6 µM [inhibitor, single point] | 
8 | CCOC(=O)C1=C(C)NC(SCC(=O)O)=NC1c1ccccc1 (configuration not stated) | inconclusive: 35.5 µM [inhibitor, single point] | 
9 | Brc1ccc2c(c1)C(c1ccc(N3CCOCC3)cc1)=NNC(c1cccs1)=N2 | inconclusive: 15.8 µM [inhibitor, partial curve] | 
10 | O=C(CN1C(=O)C2CC=CCC2C1=O)NCc1ccc2c(c1)OCO2 (configuration not stated) | inconclusive: 17.8 µM [inhibitor, single point] | 
11 | CCN1CCN(C2=NC(=O)/C(=C/c3ccc(C)o3)S2)CC1 | inconclusive: 28.2 µM [inhibitor, partial curve] | 
12 | C(=N/N1CCN(c2ccccc2)CC1)/c1cccs1 | inconclusive: 3.55 µM [inhibitor, partial curve] | 
13 | Cc1cc2nc(-c3ccc(NC(=O)c4cccnc4)cc3)oc2cc1C | inconclusive: 0.447 µM [inhibitor, full curve, poor fit] | 
14 | N#CCC(=O)N/N=C/c1cn(Cc2ccc(Cl)c(Cl)c2)c2ccccc12 | inconclusive: 1.26 µM [inhibitor, full curve, poor fit] | 
15 | COc1ccc(N=C2SC(CC(=O)Nc3ccccc3)C(=O)N2CCc2ccccn2)cc1 (configuration not stated) | inconclusive: 28.2 µM [inhibitor, single point] | 
16 | COc1ccccc1NC(=O)Cn1c(C)cc(=O)c2cccc(OC)c21 | inconclusive: 14.1 µM [inhibitor, partial curve] | 
17 | CCOC(=O)c1c(NC(=O)COc2ccc(Cl)cc2Cl)sc2c1CCCCC2 |  | inactive: 4.12%
18 | CCOC(=O)C1=C(O)/C(=C\c2ccc(O)c(OCC)c2)N=C1C | inconclusive: 28.2 µM [inhibitor, partial curve] | 
19 | CN(C)c1ccc(P(=O)(COc2ccc([N+](=O)[O-])cc2)c2ccc(N(C)C)cc2)cc1 | inconclusive: 25.1 µM [inhibitor, single point] | 
20 | COc1ccc(-n2c(Cc3cccn3C)nnc2SCC(=O)Nc2cc(C)cc(C)c2)cc1 | inconclusive: 17.8 µM [inhibitor, partial curve] | 
21 | CC(Oc1ccccc1)C(=O)Nc1c(C(=O)Nc2cccc(F)c2)oc2ccccc12 (configuration not stated) |  | inactive: 10%

Row | SMILES | Potency | activity, negative = inhibition
22 | COc1ccc(CCn2c(C)c(C(C)=O)c3cc(OC(=O)c4ccco4)ccc32)cc1OC | inconclusive: 28.2 µM [inhibitor, partial curve, poor fit] | 
23 | Cc1cc(C(=O)N/N=C/c2c[nH]c3ccccc23)cs1 | inconclusive: 7.94 µM [inhibitor, partial curve] | 
24 | CN1CCN(C(=S)c2cn(CCOc3ccccc3)c3ccccc23)CC1 |  | inactive: -14%
25 | COc1cc2c(cc1OC)C(C)N(C(=O)Cn1ncc3c1-c1cc(C)ccc1OC3)CC2 (configuration not stated) | inconclusive: 12.6 µM [inhibitor, partial curve] | 
26 | CCOc1ccc(S(=O)(=O)n2cc(F)c(=O)[nH]c2=O)cc1 |  | inactive: -5.01%
27 | COc1ccc(C2NC(=S)NC(O)(C(F)(F)F)C2C(=O)c2cccs2)cc1 (configuration not stated) |  | inactive: -0.0843%
28 | COc1ccc(S(=O)(=O)N2CCC(n3c(C)nc4cccnc43)CC2)cc1Cl |  | inactive: -2.34%
29 | Cc1ccc(OC(=O)c2c(C)nn(-c3ccccc3)c2C)cc1 | inconclusive: 11.2 µM [inhibitor, partial curve, poor fit] | 
30 | Cc1cc(C(=O)NCc2cc(C(=O)O)oc2C)c(C)o1 | inconclusive: 39.8 µM [inhibitor, single point] | 
31 | COC(=O)CCCC1=CC2=C(c3ccccc3)C(=O)C(C)(OC(=O)C3CCCC3)C(=O)C2=CN1Cc1ccco1 (configuration not stated) | inconclusive: 28.2 µM [inhibitor, partial curve] | inactive: -11.8% [at 11.5 µM]
32 | O=C(CN1CCN(c2ccccc2)CC1)Nc1ccc2c(c1)OCCO2 |  | inactive: -12.6%
33 | CCOc1cc2nc(-c3ccc(OC)c(OC)c3)nc(NCCCN3CCOCC3)c2cc1OC |  | inactive: 7.91%
34 | NC(=O)c1c(NC(NC(=O)c2ccco2)(C(F)(F)F)C(F)(F)F)sc2c1CCCC2 | inconclusive: 35.5 µM [inhibitor, partial curve] | 
35 | Cc1ccc(-c2nnc(SCC(=O)NCc3ccccc3)o2)cc1 |  | inactive: 2.94%
36 | COC(=O)C1=C(C)NC(=O)C1(NC(=O)c1cccnc1)C(F)(F)F (configuration not stated) |  | inactive: 0.601%
37 | O=S(=O)(c1ccc(NC(=S)Nc2ccc3c(c2)OCO3)cc1)N1CCOCC1 | inconclusive: 22.4 µM [inhibitor, single point] | 
38 | O=C(Oc1cc(Cl)cc(Cl)c1)c1cnc2n(c1=O)CCS2 | inconclusive: 22.4 µM [inhibitor, partial curve, poor fit] | 
39 | C=C(C)CSc1cc(C)nc2c(-c3ccccc3)c(C)nn12 | inconclusive: 39.8 µM [inhibitor, single point] | 
40 | COc1cc(C#N)ccc1OCC(=O)c1ccc2c(c1)OCCO2 | inconclusive: 20 µM [inhibitor, single point] | 
41 | Cc1ccc(NC(C)C(=O)N/N=C/c2ccc([N+](=O)[O-])s2)cc1 (configuration not stated) | inconclusive: 14.1 µM [inhibitor, partial curve] | 
